The source of these data is PubChem BioAssay (NCI).

Test systems include OVCAR-4 ovarian; A498 renal; DU-145 prostate; MCF7 breast; OVCAR-3 ovarian; MDA-MB-231 breast; BT-549 breast; SK-MEL-5 melanoma; KM12 colon; HCT-15 colon; HCT-116 colon; CCRF-CEM leukemia; T-47D breast; UACC-257 melanoma; SK-MEL-2 melanoma; MOLT-4 leukemia; MALME-3M melanoma; 786-0 renal; UO-31 renal; COLO 205 colon; SF-295 CNS; SR leukemia; UACC-62 melanoma; OVCAR-8 ovarian; CAKI-1 renal; HOP-92 NSCLC; NCI/ADR-RES ovarian; SNB-19 CNS; RPMI-8226 leukemia; LXFL 529 NSCLC; SW-620 colon; K-562 leukemia.

What all share (experiment): growth of human tumour cells (NCI), 48 h

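Values below derive from 48-hour exposures of cells grown in 96-well plates, with endpoints linearly interpolated between the two concentrations bracketing the appropriate inhibition level. GI50: concentration for 50% inhibition of growth.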 Certain results were filed several times, with different values. This is not the full list of results. There may be further records. For some assays here: A record mostly stands for its own series of concentrations, which the source does not state; a value can be the end of its range. For some assays here: The records of an entry repeat one measurement in other runs, samples, wells, individuals or studies. Records carry a tag for their origin. Letters hold for one entry only.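 TGI: total growth inhibition.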

Take `COC(=O)[C@@H](C)C[C@H](Cc1ccccc1)NC(=O)c1csc([C@@H](C[C@H](C(C)C)N(C)C(=O)[C@@H](NC(=O)[C@H]2CCCCN2C)C2CCCCC2)OC(C)=O)n1`: the GI50 in the test with OVCAR-4 ovarian is 0.788 nM and 849 nM; in the test with MCF7 breast it was < 0.1 nM and 2.5 nM; in the test on OVCAR-3 ovarian it was < 0.1 nM and 2.5 nM; in the test with SK-MEL-5 melanoma, 0.134 nM and 2.5 nM. For the same molecule, the TGI in the test on A498 renal was 0.9 nM and 85.9 nM; in the test with DU-145 prostate it was 23.8 nM and > 25 µM; in the test on OVCAR-3 ovarian, 0.712 nM and > 25 µM; in the test with MDA-MB-231 breast, 818 nM and 7.73 nM; in the test on BT-549 breast, 68.5 nM and 5.38 nM.

For `O=C(c1ccc(/C=C/c2n[nH]c3ccccc23)cc1)N1CCNCC1`, the GI50 in the test with KM12 colon was 4.06 µM [sample A, 1 test] and 69 nM [sample B, mean of 2 tests]; with MCF7 breast, 1 nM [sample A, 1 test] and 1.49 µM [sample B, 1 test]. Besides, the TGI with HCT-15 colon was 3.2 µM [sample A, 1 test] and 40.5 µM [sample B, mean of 2 tests].

In the case of `CN1C(=O)/C(=C/c2c(Cl)n(C)c3ccccc23)c2ccccc21`, the GI50 in the test with HCT-116 colon was 3.68 µM and 346 nM; with CCRF-CEM leukemia it was 2.91 µM and 169 nM; in the test on T-47D breast it was 5.52 µM and 254 nM.

`CC(=O)Oc1ccccc1C(=O)Nc1ncc([N+](=O)[O-])s1`: the TGI with UACC-257 melanoma is > 84.9 µM [sample A] and 5.45 µM [sample B]; in the test on SK-MEL-2 melanoma it was 56.6 µM [sample A] and 5.08 µM [sample B]; in the test with MOLT-4 leukemia, > 100 µM [sample A] and 7.76 µM [sample B]; in the test on KM12 colon it was > 100 µM [sample A] and 9.44 µM [sample B]; in the test on A498 renal, > 100 µM [sample A] and 1.86 µM [sample B]; with MALME-3M melanoma, > 75.8 µM [sample A] and 5.16 µM [sample B]. For the same molecule, the TGI in the test with MDA-MB-231 breast was > 91.3 µM [sample A] and 6.82 µM [sample B]; in the test with 786-0 renal it was > 100 µM [sample A] and 8.92 µM [sample B]; in the test on UO-31 renal, > 100 µM [sample A] and 6.67 µM [sample B]; with COLO 205 colon it was 38.6 µM [sample A] and 3.23 µM [sample B]; in the test with SF-295 CNS it was 52.3 µM [sample A] and 5.13 µM [sample B]; with BT-549 breast it was 69.6 µM [sample A] and 6.03 µM [sample B].

Take `CC[C@H]1CN2CCc3cc(OC)c(OC)cc3[C@@H]2C[C@@H]1C[C@H]1NCCc2c1[nH]c1ccc(O)cc21`: the TGI in the test on SR leukemia was 214 nM and 2.6 µM; in the test on UACC-62 melanoma, 61.9 nM, 843 nM, 77.3 nM; with OVCAR-8 ovarian it was 234 nM, 2.43 µM, 65.3 nM; with MOLT-4 leukemia, 215 nM, 5.61 µM, 2.3 µM; in the test on HOP-92 NSCLC, 74.1 nM, 378 nM, < 13.3 nM; in the test with NCI/ADR-RES ovarian, 35.2 nM and 13.3 µM. Further, the TGI is on record as 67.3 nM, 8.81 µM, 33.8 nM in the test with SNB-19 CNS; 77.9 nM, 87.6 nM, 3.29 µM in the test with RPMI-8226 leukemia; 86.2 nM, 56.3 nM, 1.49 µM in the test on LXFL 529 NSCLC; 73.9 nM, 274 nM, 775 nM in the test on 786-0 renal; 132 nM, 5.57 µM, 278 nM with SF-295 CNS; 72.9 nM, 154 nM, 1.67 µM in the test with SW-620 colon. Besides, the TGI in the test with K-562 leukemia is 160 nM and 4.05 µM. Moreover, in the test with CAKI-1 renal, the GI50 was 2.61 µM [1 test] and 47.7 nM [mean of 2 tests] and 36.8 nM [mean of 3 tests].
